# Test results published in paper PMC6919601, “Identification of Plasmodium dipeptidyl aminopeptidase allosteric inhibitors by high throughput screening” (PLoS ONE, 2019).
# Screen size: about 110,000 compounds; about 230 (0.21%) showed an effect of 50% or more. This is one part of the list.
# Target: DPAP1 (Plasmodium falciparum, UniProt Q8IIJ9)
# Assay: primary screen, percent inhibition; read by cleavage of a fluorogenic dipeptide substrate; higher = more effect of the substance
# Set-up: species or system P. falciparum D10 trophozoite lysates; single well
# 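Further: 30 min substrate incubation versus DMSO and 10 µM JCP410 controls.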
# DPAP1, sequence (Q8IIJ9 whole entry, looked up): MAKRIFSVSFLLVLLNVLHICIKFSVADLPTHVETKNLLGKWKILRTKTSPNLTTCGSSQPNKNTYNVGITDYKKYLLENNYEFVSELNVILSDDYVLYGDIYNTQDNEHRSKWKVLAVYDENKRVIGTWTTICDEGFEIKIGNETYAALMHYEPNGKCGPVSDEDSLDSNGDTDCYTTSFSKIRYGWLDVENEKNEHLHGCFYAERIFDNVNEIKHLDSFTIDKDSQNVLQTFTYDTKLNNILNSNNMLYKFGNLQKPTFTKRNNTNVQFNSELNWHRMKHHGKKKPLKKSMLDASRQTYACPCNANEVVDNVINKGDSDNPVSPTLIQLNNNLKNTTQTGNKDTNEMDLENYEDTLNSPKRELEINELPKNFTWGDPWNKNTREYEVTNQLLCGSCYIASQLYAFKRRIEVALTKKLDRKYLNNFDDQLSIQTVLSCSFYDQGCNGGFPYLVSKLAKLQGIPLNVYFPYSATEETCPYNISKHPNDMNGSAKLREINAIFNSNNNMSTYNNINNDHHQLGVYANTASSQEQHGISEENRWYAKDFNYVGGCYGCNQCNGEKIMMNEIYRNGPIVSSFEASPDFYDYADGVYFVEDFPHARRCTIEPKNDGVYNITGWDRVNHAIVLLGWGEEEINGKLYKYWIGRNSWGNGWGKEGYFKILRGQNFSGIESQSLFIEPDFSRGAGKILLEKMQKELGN
row,Structure (SMILES),% Inhibition @ 10 uM
1,CCCCCOC(=O)C1=C(C)NC(=O)NC1c1cccc(Br)c1 (stereo not shown),-2.58%
2,CC1(C)CC(=O)C2=C(C1)C(c1ccc3c(c1)OCO3)c1c(O)nc(O)nc1N2 (stereo not shown),3.05%
3,Cc1ccc2nc(O)c3cc(C(=O)NCCN(C)C)sc3c2c1,-3.94%
4,O=C(O)c1ccc2c(c1)C(=O)N(c1ccc(Cl)c(C(=O)O)c1)C2=O,-0.305%
5,O=C(C(Cc1ccccc1)NS(=O)(=O)c1cccc2nsnc12)N1CCC2(CC1)OCCO2 (stereo not shown),-1.43%
6,CCC(=O)c1c(-c2ccccc2)nc2n(Cc3ccccc3)c3ccccc3n12,-5.52%
7,CC(C)(C)CC(C)(C)NC(=O)c1ccc2snnc2c1,-0.0235%
8,Cc1cccc(C(OCCN(C)C)c2ccccc2)c1 (stereo not shown),-5.01%
9,CCOc1ccccc1CNC(=O)c1cnc(SC)nc1CC,2.58%
10,Cc1ccc(S(=O)(=O)NCCC(=O)NC2CC2)cc1,-2.14%
11,O=S1(=O)CCC(Nc2ccccc2)C1 (stereo not shown),-2.59%
12,Cc1ccccc1-n1nc2c(c1NC(=O)/C=C\c1ccc3c(c1)OCO3)CS(=O)(=O)C2,18.6%
13,OCCN(/C=N/C1=NN(c2cccc(C(F)(F)F)c2)CC1)CCO,2.65%
14,CC(C)Oc1ncnc2sc3c(c12)CCCC3,-4.39%
15,CC(C)CN1CSC(COc2cccc3ccccc23)C1 (stereo not shown),-3.87%
16,COc1ccc(NC(=O)c2sc3nc(-c4ccccc4)ccc3c2N)cc1,-4.11%
17,Cc1cc(C)cc(-n2c(C)cc(/C=C3/C(=N)N4C(=NC3=O)SN=C4S(C)(=O)=O)c2C)c1,1.85%
18,CCOc1ccc(C2c3c(oc4ccccc4c3=O)C(=O)N2c2nc(C)c(C)s2)cc1OC (stereo not shown),-0.828%
19,N#C/C(=C(O)\C=C\C(=O)O)c1nc2ccccc2[nH]1,-4.85%
20,COc1ccc(OC)c(NC(=O)Cc2ccccc2)c1,2.49%
21,COc1ccc(-c2noc(CN(C(=O)CCCN3C(=O)c4ccccc4C3=O)C(C)C)n2)cc1,1.38%
22,Cc1c(NCc2nc3ccccc3[nH]2)c(=O)n(-c2ccccc2)n1C,-1.85%
23,COc1ccccc1CNc1nc2c(S(=O)(=O)c3ccccc3)nnn2c2ccccc12,-10.5%
24,COc1ccc(-c2ccc3c(N)c(C(=O)NCCc4ccccc4)sc3n2)cc1,-4.02%
25,O=C(O)CSCCc1ccccn1,2.62%
26,CCN1CCN(CC(O)COc2cccc(OC)c2)CC1 (stereo not shown),-1.44%
27,CCOCCCNc1nc2ccc(C(=O)c3ccccc3)cc2n2cnnc12,-3.24%
28,COc1ccc2cc3c(N)nn(C(=O)c4ccccc4F)c3nc2c1,-2.75%
